{"source": "patent US20030186948A1", "about": "“O-linked N-acetylglucosamine pathway in the pathogenesis of neurodegeneration and diabetes” (priority 2000, published 2003)", "biological_target": "T1, recombinant O-GlcNAcase (Mus musculus, UniProt Q9EQQ9)", "T1 sequence (Q9EQQ9 1-916)": "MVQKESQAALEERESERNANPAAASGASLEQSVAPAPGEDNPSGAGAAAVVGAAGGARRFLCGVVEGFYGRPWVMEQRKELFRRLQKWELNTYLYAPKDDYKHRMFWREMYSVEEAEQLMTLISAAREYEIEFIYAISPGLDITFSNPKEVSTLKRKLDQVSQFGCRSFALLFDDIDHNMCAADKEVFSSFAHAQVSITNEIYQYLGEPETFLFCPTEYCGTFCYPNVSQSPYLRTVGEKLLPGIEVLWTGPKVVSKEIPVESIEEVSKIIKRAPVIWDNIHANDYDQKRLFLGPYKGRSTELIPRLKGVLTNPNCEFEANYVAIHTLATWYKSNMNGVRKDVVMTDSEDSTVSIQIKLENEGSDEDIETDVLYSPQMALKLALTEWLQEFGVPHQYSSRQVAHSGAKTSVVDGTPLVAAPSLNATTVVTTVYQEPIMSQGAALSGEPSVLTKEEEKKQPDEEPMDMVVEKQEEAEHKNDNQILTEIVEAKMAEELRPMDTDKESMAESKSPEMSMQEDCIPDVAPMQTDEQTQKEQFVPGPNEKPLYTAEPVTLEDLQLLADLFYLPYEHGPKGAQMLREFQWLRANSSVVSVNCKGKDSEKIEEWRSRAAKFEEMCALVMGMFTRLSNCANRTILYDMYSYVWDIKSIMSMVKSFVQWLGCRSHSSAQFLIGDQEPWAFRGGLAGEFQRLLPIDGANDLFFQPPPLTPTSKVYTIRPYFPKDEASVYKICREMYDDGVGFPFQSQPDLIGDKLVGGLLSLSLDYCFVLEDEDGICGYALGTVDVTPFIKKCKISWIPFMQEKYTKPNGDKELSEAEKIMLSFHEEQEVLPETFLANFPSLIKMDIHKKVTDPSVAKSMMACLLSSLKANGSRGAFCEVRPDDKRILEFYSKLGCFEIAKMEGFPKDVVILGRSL", "data": [{"smiles": "CN(N=O)C(=O)N[C@H]1C(O)O[C@H](CO)[C@@H](O)[C@@H]1O", "note": "(mixture of isomers) [streptozotocin]", "values": [{"measurement": "type of inhibition of O-GlcNAcase", "result": "noncompetitive inhibitor"}]}, {"smiles": "CC(=O)N[C@H]1/C(=N/OC(=O)Nc2ccccc2)O[C@H](CO)[C@@H](O)[C@@H]1O", "note": "[PUGNAC]", "values": [{"measurement": "type of inhibition of O-GlcNAcase", "result": "competitive kinetics"}]}]}
